According to the supplement of paper PMC4166925:
± gives the standard deviation of the averaged measurements. The full ranking holds about 33,000 sequences; the median of “E-score (dimensionless, -0.5 to 0.5)” is about -0.049, and the highest 2% start at about 0.37. The list shows a part of the results.

These sequences were tested on T1, PmTbr T-box DNA-binding domain (GST fusion) (assay: PBM E-score of 8-mer (E-score (dimensionless, -0.5 to 0.5)); Tbr is Tbrain of the sea star Patiria miniata (Pm) or the sea urchin Strongylocentrotus purpuratus (Sp); higher = stronger binding preference; most listed sequences are background and not binding sites). Conditions: the construct has about 5 more residues each side.
T1 sequence: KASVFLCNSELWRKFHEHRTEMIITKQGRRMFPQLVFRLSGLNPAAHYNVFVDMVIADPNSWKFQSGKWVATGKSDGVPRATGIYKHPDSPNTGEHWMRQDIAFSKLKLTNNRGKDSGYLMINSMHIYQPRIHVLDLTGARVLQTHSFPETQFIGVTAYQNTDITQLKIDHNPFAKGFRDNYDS
In short: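 Primer extension turned Universal Agilent oligonucleotide arrays double-stranded. They were incubated with 200 nM protein in PBS (pH 7.5); the protein was a GST-fused Tbr T-box DNA-binding domain expressed in BL21 E. coli at 20 °C and purified on glutathione. Every ungapped 8-mer was scored from the scanned, quantified probe intensities, and the Universal PBM Analysis Suite gave each an enrichment E-score averaged over duplicate arrays.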

Sequence | PBM E-score of 8-mer
CATGTCAC | 0.352 ± 0.0093
TCCCCCGA | -0.121 ± 0.078
CCAAAATA | -0.176 ± 0.038
ATGCGAAG | 0.132 ± 0.0083
ATCCGAGG | -0.146 ± 0.011
AGGTTGCA | 0.15 ± 0.061
CAGGCCAG | -0.303 ± 0.09
CCAGGAGG | -0.103 ± 0.032
GATGGTTA | -0.218 ± 0.064
CAGACAAG | -0.147 ± 0.052
AAATCGAA | 0.0673 ± 0.073
ATTAGAAG | -0.226 ± 0.053
CAACAGAA | -0.116 ± 0.022
CTAAATGC | 0.134 ± 0.022
GGGGGAAA | -0.0991 ± 0.021
AAAGGGAA | -0.145 ± 0.09
AACGAATG | 0.0394 ± 0.045
CAGTATAC | -0.152 ± 0.054
CGGGGTTC | -0.0309 ± 0.0047
CAAATACG | -0.0163 ± 0.046
ATTCAGCA | 0.0671 ± 0.061
CAAAGAGC | -0.117 ± 0.032
GGAGCCCC | -0.215 ± 0.05

Sequence | PBM E-score of 8-mer
CTTTTCAA | 0.00166 ± 0.079
GAAAATAC | 0.149 ± 0.028
CGCCGAGC | 0.126 ± 0.0089
CCTTGTGC | -0.102 ± 0.077
CGTAGACA | 0.121 ± 0.03
TGCCCCAA | -0.0979 ± 0.045
GAGGTTAC | 0.0141 ± 0.022
CCGTAAAG | -0.0628 ± 0.027
AAATCATG | -0.0852 ± 0.073
CTGGTGGA | -0.159 ± 0.027
GGCGCCCA | 0.127 ± 0.0008
AAGCACTA | -0.18 ± 0.042
TATTGGCA | 0.234 ± 0.027
CACTAGGA | 0.00213 ± 0.093
GCTCCTTA | -0.1824 ± 0.00047
AACTACGA | -0.15 ± 0.015
TCGCCCCA | 0.0572 ± 0.027
CCACTACC | -0.118 ± 0.073
GGAGCGCC | 0.0573 ± 0.035
CCTCCGAC | 0.141 ± 0.048
CCCGAGCC | -0.0993 ± 0.081
CTAACACA | 0.374 ± 0.035
ATGTTAGA | -0.236 ± 0.027

Sequence | PBM E-score of 8-mer
CTATTATA | -0.0905 ± 0.0057
AACAGGAA | -0.0377 ± 0.01
CATCTGTC | 0.288 ± 0.01
CCCAAATC | 0.0088 ± 0.069
CCAGTCCA | -0.015 ± 0.051
ATCACTCG | -0.0737 ± 0.012
CCAGGATC | -0.191 ± 0.071
GTTTTAGA | -0.15 ± 0.029
CCTAAAGG | 0.0658 ± 0.049
AGCTGCAG | 0.0642 ± 0.099
AGCAGGTC | 0.0259 ± 0.014
AGACTGCA | -0.271 ± 0.045
AGTAAACG | -0.124 ± 0.053
CAAATCAC | 0.232 ± 0.0098
AGATGCCT | -0.123 ± 0.037
CGATGAAA | -0.00761 ± 0.067
CATATGGG | 0.0281 ± 0.047
CCTCGGAC | -0.199 ± 0.023
ACTCGACG | -0.00989 ± 0.04
GCCTCCGC | -0.208 ± 0.024
GTCGCACA | 0.353 ± 0.025
GCGCCAAA | 0.315 ± 0.017
GCCGTCCC | -0.0496 ± 0.065

Sequence | PBM E-score of 8-mer
CCGATTAA | -0.00536 ± 0.017
AATACTTC | -0.03 ± 0.011
CGTAACCC | -0.0917 ± 0.035
CATTGTCC | 0.132 ± 0.0052
ACATCGTC | 0.0454 ± 0.028
CGGTGCAG | -0.0282 ± 0.027
ACCTCTAC | 0.0791 ± 0.0018
GGACCCCA | -0.38 ± 0.037
CAACTTTC | 0.129 ± 0.046
GAGAGGTA | -0.0451 ± 0.015
GTTAACAA | 0.32 ± 0.013
CTCTTTGC | 0.059 ± 0.07
AACAGTTC | 0.189 ± 0.015
TATCTGAA | -0.11 ± 0.012
CTCGACCC | -0.0544 ± 0.035
AAGACGGA | -0.108 ± 0.045
AATTTCGA | -0.11 ± 0.01
ATAGGAGC | -0.0935 ± 0.086
GAAGAGAA | -0.199 ± 0.013
CTAGACAC | 0.123 ± 0.08
GTAGATTA | 0.0865 ± 0.02
TGCAGGAA | -0.153 ± 0.036
AAAAACCG | -0.0303 ± 0.02

Sequence | PBM E-score of 8-mer
ATAGGCTA | -0.285 ± 0.0075
CCTAATTC | 0.0429 ± 0.0097
CACCTCCA | 0.423 ± 0.0067
CACGTGCG | 0.28 ± 0.026
TAACAACA | 0.254 ± 0.048
ATTAGCCG | -0.0305 ± 0.076
CTTGTTGC | 0.144 ± 0.024
ACCATAGC | 0.035 ± 0.0013
ACACGTTA | 0.3709 ± 0.0015
AAAAATTC | -0.114 ± 0.019
AAAAGCAC | 0.0928 ± 0.007
CATGGGTA | -0.123 ± 0.048
ATAATCAG | -0.0873 ± 0.05
CGTATGAC | 0.00429 ± 0.046
GTCTGGTA | -0.245 ± 0.032
GAGGACCC | -0.04776 ± 4.2e-05
GATGAAGC | -0.0466 ± 0.017
GGCTCGAA | 0.0175 ± 0.063
TCTACCCA | -0.139 ± 0.048
AAGCCTGC | -0.142 ± 0.0015
CACGTAAG | 0.0187 ± 0.091
CCGCTGTC | 0.00332 ± 0.044
AAATTTGC | 0.0399 ± 0.12

Sequence | PBM E-score of 8-mer
AAATACTA | -0.0948 ± 0.058
ATTGACAA | 0.304 ± 0.043
TATACCGA | -0.114 ± 0.0033
CCAGCAAA | -0.131 ± 0.054
CAATAGGG | -0.157 ± 0.03
ACCTAGCG | 0.33 ± 0.02
ATAGCTGG | -0.0874 ± 0.034
AGGGGCGG | 0.0193 ± 0.039
AAACCCAC | 0.03095 ± 0.00028
ACATTGTC | 0.196 ± 0.025
CGAGTCCC | -0.113 ± 0.0043
GTTTAAGA | -0.176 ± 0.045
ACGCAGAA | 0.118 ± 0.014
ACAATTGA | 0.0544 ± 0.075
ACCGCAGC | 0.00955 ± 0.044
AGTTTGAA | -0.102 ± 0.06
CTCTCAGC | -0.00577 ± 0.0096
CCCGCTCG | -0.0279 ± 0.021
CCACGGGC | -0.187 ± 0.019
ATACCAGG | -0.0947 ± 0.038
AGATTAAC | 0.0557 ± 0.048
ATAGTACG | -0.156 ± 0.029
CAATGATC | -0.0911 ± 0.018

Sequence | PBM E-score of 8-mer
ATTGGACA | -0.089 ± 0.015
CATCGATG | -0.0732 ± 0.025
AAGCCAAG | -0.303 ± 0.048
GGGCTACC | -0.203 ± 0.011
CTGCGACA | 0.172 ± 0.015
CACACGGA | 0.0598 ± 0.0022
AGCATGCA | -0.127 ± 0.088
CACTAATA | 0.108 ± 0.074
AGACACCT | 0.4559 ± 0.0013
CTCAAGAG | 0.00045 ± 0.0019
AGCTCTAA | -0.225 ± 0.016
ATATTGTA | -0.0543 ± 0.11
CCTTACCG | -0.114 ± 0.034
ATGTAGAC | -0.237 ± 0.043
TAGGATGA | 0.0744 ± 0.022
GTATTGTA | -0.0822 ± 0.11
ATAGTTAG | 0.0783 ± 0.045
CTTATCAC | 0.331 ± 0.023
GGATGCGA | 0.152 ± 0.012
ACCCTATA | -0.1158 ± 0.0011
